Measurements reported in the supplement of paper PMC7826260.
Some of the results follow. Cleavage of a single-stranded DNA pool by Rep nickase domains was read by sequencing at 3 µM enzyme and 37 °C for 1 h; the strands have 90 letters, of which the middle is given. Numbers give uncut DNA relative to the enzyme-free pool, as log2; strong cutting gives strongly negative numbers. There is no active / inactive call. Because reads are shares of a total, they shift together; where an enzyme cuts many sequences, the uncut ones exceed 0.

Tests used:
Test in all cases: uncleaved DNA left, log2 of reads against the no-enzyme library (log2 ratio); higher = less cleavage (more negative = more Rep cleavage of the k-mer); sequences stand for … in CTCGTCCG…ACCGGAGA
[1] = tested on: T1, Rep nickase domain of Muscovy duck circovirus
T1 sequence (protein, residues 1-111, tag omitted): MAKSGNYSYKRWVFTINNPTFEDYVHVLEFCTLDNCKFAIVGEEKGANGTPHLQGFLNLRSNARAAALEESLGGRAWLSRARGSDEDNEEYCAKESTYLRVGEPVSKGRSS
Protocol: (§1)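 A pool of 90-nt single-stranded DNAs with seven random bases just before the constant AC of the nick site (name = the seven bases) was cut by 3 µM recombinant His6-SUMO-tagged Rep nickase domain (300 nM DNA, 50 mM HEPES pH 8.0, 50 mM NaCl, 1 mM MnCl2, 1 h, 37 °C, three replicates). Uncut DNA was amplified and sequenced.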

[2] = tested on: T2, Rep nickase domain of banana bunchy top virus
T2 sequence (protein, residues 1-94, tag omitted): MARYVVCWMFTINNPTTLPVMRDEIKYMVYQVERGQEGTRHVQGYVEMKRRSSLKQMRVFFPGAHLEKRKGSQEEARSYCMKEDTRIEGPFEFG
Protocol: as §1

[3] = tested on: T3, Rep nickase domain of cabbage leaf curl virus
T3 sequence (protein, residues 1-116, tag omitted): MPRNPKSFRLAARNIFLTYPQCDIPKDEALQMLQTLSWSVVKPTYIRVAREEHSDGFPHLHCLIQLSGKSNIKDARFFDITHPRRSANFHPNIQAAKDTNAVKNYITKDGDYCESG
Protocol: as §1

[4] = tested on: T4, Rep nickase domain of chickpea chlorotic dwarf virus
T4 sequence (protein, residues 1-124, tag omitted): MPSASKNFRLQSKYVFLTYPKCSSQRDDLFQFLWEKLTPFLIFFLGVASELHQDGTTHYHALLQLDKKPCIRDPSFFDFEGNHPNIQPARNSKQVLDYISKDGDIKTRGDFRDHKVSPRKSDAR
Protocol: as §1

[5] = tested on: T5, Rep nickase domain of faba bean necrotic yellows virus
T5 sequence (protein, residues 1-98, tag omitted): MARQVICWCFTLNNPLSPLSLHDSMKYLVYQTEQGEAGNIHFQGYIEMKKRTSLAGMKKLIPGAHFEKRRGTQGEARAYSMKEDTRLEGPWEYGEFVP
Protocol: as §1

[6] = tested on: T6, Rep nickase domain of maize striate mosaic virus
T6 sequence (protein, residues 1-117, tag omitted): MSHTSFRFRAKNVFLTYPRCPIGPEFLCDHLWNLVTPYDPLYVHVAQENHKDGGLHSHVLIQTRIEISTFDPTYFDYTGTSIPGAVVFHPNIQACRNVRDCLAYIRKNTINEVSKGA
Protocol: as §1

[7] = tested on: T7, Rep nickase domain of porcine circovirus 2
T7 sequence (protein, residues 2-116, tag omitted): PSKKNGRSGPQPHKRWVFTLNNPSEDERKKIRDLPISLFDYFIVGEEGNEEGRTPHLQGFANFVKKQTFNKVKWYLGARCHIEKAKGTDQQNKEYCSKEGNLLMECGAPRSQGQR
Protocol: as §1

[8] = tested on: T8, Rep nickase domain of tomato golden mosaic virus
T8 sequence (protein, residues 1-124, tag omitted): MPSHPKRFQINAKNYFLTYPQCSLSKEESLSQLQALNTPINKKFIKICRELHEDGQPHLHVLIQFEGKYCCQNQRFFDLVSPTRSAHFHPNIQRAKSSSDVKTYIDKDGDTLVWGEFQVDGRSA
Protocol: as §1

[9] = tested on: T9, Rep nickase domain of tomato yellow leaf curl virus
T9 sequence (protein, residues 1-136, tag omitted): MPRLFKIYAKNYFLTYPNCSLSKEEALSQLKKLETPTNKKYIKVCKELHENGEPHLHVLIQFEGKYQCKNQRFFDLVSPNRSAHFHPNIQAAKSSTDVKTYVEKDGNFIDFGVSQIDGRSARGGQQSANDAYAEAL
Protocol: as §1

[10] = tested on: T10, Rep nickase domain of wheat dwarf virus
T10 sequence (protein, residues 1-137, tag omitted): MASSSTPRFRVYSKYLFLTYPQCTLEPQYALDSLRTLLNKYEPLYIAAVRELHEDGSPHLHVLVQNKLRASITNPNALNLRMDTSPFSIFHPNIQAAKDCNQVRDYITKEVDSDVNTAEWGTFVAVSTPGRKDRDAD
Protocol: as §1

ACGAAGC was tested, and the “uncleaved DNA left (log2)” value [1] was 2.24e-05, the “uncleaved DNA left (log2)” value [2] was 0.0652 and the “uncleaved DNA left (log2)” value [3] was -0.347. The “uncleaved DNA left (log2)” value [4] was -0.462, the “uncleaved DNA left (log2)” value [5] was 0.0966 and the “uncleaved DNA left (log2)” value [6] was -0.953. For the same sequence, the “uncleaved DNA left (log2)” value [7] was 0.289, the “uncleaved DNA left (log2)” value [8] was 0.0916 and the “uncleaved DNA left (log2)” value [9] was 0.0174. The “uncleaved DNA left (log2)” value [10] was -0.00472.
With GTTCATA the “uncleaved DNA left (log2)” value [1] was -0.0178, the “uncleaved DNA left (log2)” value [2] was -0.0351 and the “uncleaved DNA left (log2)” value [3] was 0.331. For the same sequence, the “uncleaved DNA left (log2)” value [4] was 0.803, the “uncleaved DNA left (log2)” value [5] was -0.116 and the “uncleaved DNA left (log2)” value [6] was 1.67. For the same sequence, the “uncleaved DNA left (log2)” value [7] was 0.0161, the “uncleaved DNA left (log2)” value [8] was -0.0424 and the “uncleaved DNA left (log2)” value [9] was -0.0278. For the same sequence, the “uncleaved DNA left (log2)” value [10] was 0.0398.
In the case of CCGCTCG, the “uncleaved DNA left (log2)” value [1] is reported as -0.15, the “uncleaved DNA left (log2)” value [2] is reported as -0.152 and the “uncleaved DNA left (log2)” value [3] is reported as -0.822. The “uncleaved DNA left (log2)” value [4] was -0.282, the “uncleaved DNA left (log2)” value [5] was -0.298 and the “uncleaved DNA left (log2)” value [6] was -0.722. The “uncleaved DNA left (log2)” value [7] was -0.0437, the “uncleaved DNA left (log2)” value [8] was -0.144 and the “uncleaved DNA left (log2)” value [9] was -0.301. For the same sequence, the “uncleaved DNA left (log2)” value [10] was -0.196.
In the case of GTTCCGG, the “uncleaved DNA left (log2)” value [1] is reported as 0.00986, the “uncleaved DNA left (log2)” value [2] is reported as 0.0998 and the “uncleaved DNA left (log2)” value [3] is reported as 0.561. The “uncleaved DNA left (log2)” value [4] was 1.53, the “uncleaved DNA left (log2)” value [5] was -0.0477 and the “uncleaved DNA left (log2)” value [6] was 2.12. The “uncleaved DNA left (log2)” value [7] was 0.16, the “uncleaved DNA left (log2)” value [8] was 0.0927 and the “uncleaved DNA left (log2)” value [9] was -0.0452. The “uncleaved DNA left (log2)” value [10] was 0.0645.
In the case of GAGTCAT, the “uncleaved DNA left (log2)” value [1] is reported as 0.00673, the “uncleaved DNA left (log2)” value [2] is reported as -0.00418 and the “uncleaved DNA left (log2)” value [3] is reported as 0.711. For the same sequence, the “uncleaved DNA left (log2)” value [4] was 1.88, the “uncleaved DNA left (log2)” value [5] was -0.0368 and the “uncleaved DNA left (log2)” value [6] was 2.09. For the same sequence, the “uncleaved DNA left (log2)” value [7] was -3.14, the “uncleaved DNA left (log2)” value [8] was 0.00749 and the “uncleaved DNA left (log2)” value [9] was 0.0696. The “uncleaved DNA left (log2)” value [10] was 0.158.
CTACCTC was tested, and the “uncleaved DNA left (log2)” value [1] was 0.0198, the “uncleaved DNA left (log2)” value [2] was 0.000999 and the “uncleaved DNA left (log2)” value [3] was 0.0857. For the same sequence, the “uncleaved DNA left (log2)” value [4] was -0.314, the “uncleaved DNA left (log2)” value [5] was 0.0443 and the “uncleaved DNA left (log2)” value [6] was 0.604. The “uncleaved DNA left (log2)” value [7] was -0.177, the “uncleaved DNA left (log2)” value [8] was 0.0406 and the “uncleaved DNA left (log2)” value [9] was 0.142. For the same sequence, the “uncleaved DNA left (log2)” value [10] was 0.149.
TGTCTCC was tested, and the “uncleaved DNA left (log2)” value [1] was 0.0512, the “uncleaved DNA left (log2)” value [2] was -0.0346 and the “uncleaved DNA left (log2)” value [3] was 0.149. The “uncleaved DNA left (log2)” value [4] was 0.344, the “uncleaved DNA left (log2)” value [5] was -0.0928 and the “uncleaved DNA left (log2)” value [6] was 1.47. The “uncleaved DNA left (log2)” value [7] was 0.0728, the “uncleaved DNA left (log2)” value [8] was -0.0449 and the “uncleaved DNA left (log2)” value [9] was -0.0815. The “uncleaved DNA left (log2)” value [10] was -0.0136.
With GTCCTAA the “uncleaved DNA left (log2)” value [1] was 0.0244, the “uncleaved DNA left (log2)” value [2] was 0.218 and the “uncleaved DNA left (log2)” value [3] was 0.302. For the same sequence, the “uncleaved DNA left (log2)” value [4] was 1.04, the “uncleaved DNA left (log2)” value [5] was -0.0101 and the “uncleaved DNA left (log2)” value [6] was 1.78. For the same sequence, the “uncleaved DNA left (log2)” value [7] was 0.0124, the “uncleaved DNA left (log2)” value [8] was 0.112 and the “uncleaved DNA left (log2)” value [9] was 0.06. For the same sequence, the “uncleaved DNA left (log2)” value [10] was 0.0378.
GTACAGT was tested, and the “uncleaved DNA left (log2)” value [1] was 0.078, the “uncleaved DNA left (log2)” value [2] was 0.146 and the “uncleaved DNA left (log2)” value [3] was 0.427. For the same sequence, the “uncleaved DNA left (log2)” value [4] was 0.835, the “uncleaved DNA left (log2)” value [5] was 0.0634 and the “uncleaved DNA left (log2)” value [6] was 1.63. For the same sequence, the “uncleaved DNA left (log2)” value [7] was 0.124, the “uncleaved DNA left (log2)” value [8] was -0.01 and the “uncleaved DNA left (log2)” value [9] was 0.101. For the same sequence, the “uncleaved DNA left (log2)” value [10] was 0.141.
AATCAAC was tested, and the “uncleaved DNA left (log2)” value [1] was -0.0795, the “uncleaved DNA left (log2)” value [2] was -0.075 and the “uncleaved DNA left (log2)” value [3] was -0.0729. For the same sequence, the “uncleaved DNA left (log2)” value [4] was -1.5, the “uncleaved DNA left (log2)” value [5] was 0.0169 and the “uncleaved DNA left (log2)” value [6] was -0.586. The “uncleaved DNA left (log2)” value [7] was 0.0281, the “uncleaved DNA left (log2)” value [8] was -0.0903 and the “uncleaved DNA left (log2)” value [9] was -0.00604. For the same sequence, the “uncleaved DNA left (log2)” value [10] was 0.0445.
With CTAAGAC the “uncleaved DNA left (log2)” value [1] was -0.00113, the “uncleaved DNA left (log2)” value [2] was -0.102 and the “uncleaved DNA left (log2)” value [3] was -2.13. The “uncleaved DNA left (log2)” value [4] was -2.64, the “uncleaved DNA left (log2)” value [5] was -0.078 and the “uncleaved DNA left (log2)” value [6] was -0.788. The “uncleaved DNA left (log2)” value [7] was 0.114, the “uncleaved DNA left (log2)” value [8] was -0.22 and the “uncleaved DNA left (log2)” value [9] was -0.0765. The “uncleaved DNA left (log2)” value [10] was -0.335.
In the case of CCTGCGC, the “uncleaved DNA left (log2)” value [1] is reported as 0.0632, the “uncleaved DNA left (log2)” value [2] is reported as 0.103 and the “uncleaved DNA left (log2)” value [3] is reported as -0.689. For the same sequence, the “uncleaved DNA left (log2)” value [4] was -0.433, the “uncleaved DNA left (log2)” value [5] was 0.0702 and the “uncleaved DNA left (log2)” value [6] was -0.786. For the same sequence, the “uncleaved DNA left (log2)” value [7] was 0.126, the “uncleaved DNA left (log2)” value [8] was -0.0695 and the “uncleaved DNA left (log2)” value [9] was 0.157. For the same sequence, the “uncleaved DNA left (log2)” value [10] was -0.141.
With CATTACG the “uncleaved DNA left (log2)” value [1] was 0.0178, the “uncleaved DNA left (log2)” value [2] was 0.111 and the “uncleaved DNA left (log2)” value [3] was -0.537. The “uncleaved DNA left (log2)” value [4] was 0.861, the “uncleaved DNA left (log2)” value [5] was 0.0441 and the “uncleaved DNA left (log2)” value [6] was 0.137. The “uncleaved DNA left (log2)” value [7] was 0.223, the “uncleaved DNA left (log2)” value [8] was 0.0103 and the “uncleaved DNA left (log2)” value [9] was 0.263. The “uncleaved DNA left (log2)” value [10] was 0.0416.
With CCCCACT the “uncleaved DNA left (log2)” value [1] was -0.201, the “uncleaved DNA left (log2)” value [2] was -0.215 and the “uncleaved DNA left (log2)” value [3] was -0.333. The “uncleaved DNA left (log2)” value [4] was -2.48, the “uncleaved DNA left (log2)” value [5] was -0.128 and the “uncleaved DNA left (log2)” value [6] was -0.668. The “uncleaved DNA left (log2)” value [7] was -0.355, the “uncleaved DNA left (log2)” value [8] was -0.0943 and the “uncleaved DNA left (log2)” value [9] was -0.293. The “uncleaved DNA left (log2)” value [10] was -0.0917.
With GCCTACT the “uncleaved DNA left (log2)” value [1] was -2.4, the “uncleaved DNA left (log2)” value [2] was -0.178 and the “uncleaved DNA left (log2)” value [3] was -0.208. For the same sequence, the “uncleaved DNA left (log2)” value [4] was -2.06, the “uncleaved DNA left (log2)” value [5] was -0.147 and the “uncleaved DNA left (log2)” value [6] was -0.0616. For the same sequence, the “uncleaved DNA left (log2)” value [7] was -2.64, the “uncleaved DNA left (log2)” value [8] was -0.0396 and the “uncleaved DNA left (log2)” value [9] was -0.127. For the same sequence, the “uncleaved DNA left (log2)” value [10] was -0.0712.
